Consider 22 molecules from publication PMC12136788.

T1: UNK ZnF1-3 (human, UniProt Q9C0B0 31-174)
T1 sequence: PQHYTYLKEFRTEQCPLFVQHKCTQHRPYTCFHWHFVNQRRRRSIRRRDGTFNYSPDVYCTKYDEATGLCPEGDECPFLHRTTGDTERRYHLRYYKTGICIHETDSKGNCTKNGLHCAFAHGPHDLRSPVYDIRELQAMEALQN

B1: 114969895_114970468_1347_CDS_ENSG00000197323_ENST00000358465|human|control|control (ssRNA)
RNA: GGGAGUUCUACAGUCCGACGAUCAUGACGCAACUGGAAAGUAAUCAGUCGCUUGCUGUAUAGUAGUGCUGUGCUGCUGCCACUUGCAAUUGCCCAAUUUGUGAAGUUCAUAACAUGCUUCACCUGCCGGGAAAGGCCUGUGAUCAACAGAGGAUUGAGCAUCA
B2: chr1:58468927:58468928:-_ENSMUSG00000026034_ENSMUST00000148330|mus_mus|mus_mus_mus_hu_False|28_58 (ssRNA)
RNA: GGGAGUUCUACAGUCCGACGAUCAAUUACUGAAAAAGAUGUUCAUUACCUUAGCUAUGUACUUAAUGAACCAAAUUAUCUAAAAAAAAUAAACAUGGCAAUAUAAAAAGCUAUACAAUUUACAAAGCUGUACAAAAUAACUUACAACAGAGGAUUGAGCAUCA
B3: chr13:98020659:98020660:+_ENSMUSG00000041773_ENSMUST00000041623|mus_hu|FALSE|FALSE (ssRNA)
RNA: GGGAGUUCUACAGUCCGACGAUCACAAUUACAAGACAAGGACUAGAUCACAGGUUUGUUCAUUCAUAUUUAAACCAUGUGCUACUUGCACCAAAAAUCCCACCCCCCUCCCUCGCCCCUUUCCUUCAUGUCCAGUUAGAGCAUCAACAGAGGAUUGAGCAUCA
B4: chr5:31552970:31552971:+_ENSG00000082213_ENST00000325366|hu_mus|motif|central (ssRNA)
RNA: GGGAGUUCUACAGUCCGACGAUCCUGGAAGCCCAGAAACAAAAGCCGGGUCUGUCACUGCGCCAAACUGCACAGCAGCCGGGCACGGUCUCAGCUCAGAGGGGACUCUUCUGAGUACACCAGGUGAGUGUCCAGGGUCCCGUACAACAGAGGAUUGAGCAUCA
B5: chr7:128503047:128503048:+_ENSG00000128524_ENST00000249289|hu_hu|motif|central (ssRNA)
RNA: GGGAGUUCUACAGUCCGACGAUCGGUUGUAUCCUUCUCCACCACCAGGAAAUUGGGAUGGCGGUUCUUGUUAAGCUCCCCGGUGCCGCCCAGCAGGAAACCAGUCACCGUGUCCUCGUCUCCGAUCACUGCGAUGAGCUUACCCAACAGAGGAUUGAGCAUCA
B6: chr5:128440902:128440903:+_ENSG00000066583_ENST00000173527|hu_mus|hu_hu_hu_mus_True|68_78 (ssRNA)
RNA: GGGAGUUCUACAGUCCGACGAUCUUGAACGGUGCUGCCAAGUCCUUUGGGGUAUUGUUCUGUUACAAUAACAGGAAUCCCUAAGAUCCGAGCUCCUUGCAACAGUCUCUGUCCCACACUAAUGAUGUCCCCAAAGUAUUUGAUCAACAGAGGAUUGAGCAUCA
B7: chrX:148438211:148438212:+_ENSMUSG00000025260_ENSMUST00000026289|mus_mus|motif|central (ssRNA)
RNA: GGGAGUUCUACAGUCCGACGAUCGUCUGGUUCAUUCUGGCCCAUCUCCCCAGCAACCAGGCGGAUCACAUUGAAAGUGCCGGUAAGAUUCACAUUGAUAACCCGCUGGAAGUCCUCCAAAGUAUGGAUCUUGUUCUUCUUUUGCAACAGAGGAUUGAGCAUCA
B8: chr1:58468927:58468928:-_ENSMUSG00000026034_ENSMUST00000148330|mus_mus|motif|central (ssRNA)
RNA: GGGAGUUCUACAGUCCGACGAUCAUUCUAUAAUUACUGAAAGAUGUUAUUUGGUUUGGCCAUGUAUUUAAUAAAGCAUCGGAAAAACAUAAAAUGUUUUACAAAUUAAGCUAUACAAAAUAACUUAAUUAAAAGCUAGACUGACAACAGAGGAUUGAGCAUCA
B9: chr3:41281661:41281662:+_ENSG00000168036_ENST00000349496|hu_mus|motif|central (ssRNA)
RNA: GGGAGUUCUACAGUCCGACGAUCACCUGCUUAUUUUAAGCAUAUUAAAAAGGAAACUAAUCGGACCAUUUCUAUCUGUCGGUUUAUACAAAAGGCUACACAAUGUUACACGUCUCCAGAUUACAAUUAGCGUGAUUAUGAAUUCAACAGAGGAUUGAGCAUCA
B10: chr2:27436100:27436101:+_ENSG00000138085_ENST00000606999|hu_hu|FALSE|FALSE (ssRNA)
RNA: GGGAGUUCUACAGUCCGACGAUCGGUGCCCUUCUGAUUCAGGCAGCAACGGGCAUGCAGCAUUAGCUCUCGUGUCGUUUUACAAUAAAAGGCCACUUUUGACAAAUUUUGCACGCUCCCUGGACAUUGGGUGCAUAUCUCGGGCAACAGAGGAUUGAGCAUCA
B11: chr4:144460044:144460045:+_ENSG00000153147_ENST00000283131|hu_mus|hu_hu_hu_mus_False|1_58 (ssRNA)
RNA: GGGAGUUCUACAGUCCGACGAUCACGGUCCAUAGCCUGAAGAUCAACUUGCGGAUUCCAAUCUGAGUCAUAUAAAAUUACUACAUCAGCAGUUGCAAGAUUGAUGCCCAGACCACCAGCACGUGUGCUUAGCAUAAAAACAAACAACAGAGGAUUGAGCAUCA
B12: chr1:29070155:29070156:+_ENSG00000198492_ENST00000541996|hu_hu|FALSE|FALSE (ssRNA)
RNA: GGGAGUUCUACAGUCCGACGAUCCACAGCAGAUUUCAUUUCUGCCACGCCACAGAAGUGUCCACUGCCGUUGACACUGAAAAGUAAGUAAACGGGGCCUUUCCCGUUCAUGGAACGAUAAGCAGCAUCCAGUCUCUUGUUACCCAACAGAGGAUUGAGCAUCA
B13: chr8:117878989:117878990:-_ENSG00000164754_ENST00000297338|hu_hu|hu_hu_hu_mus_True|18_58 (ssRNA)
RNA: GGGAGUUCUACAGUCCGACGAUCCCAGAGGCCCUCGUUUACUGAGGACAAAAUGUGCGUAGAACAUUUUUCUUAUUGGCUAUGAAAUAAGAAGAAACCUGGAUCUCGGCGGGGAGCUUGGGCGGGCGGGUGGCCCGGGGAGGGCAACAGAGGAUUGAGCAUCA
B14: chr11:23187360:23187361:+_ENSMUSG00000020290_ENSMUST00000020538|mus_mus|motif|central (ssRNA)
RNA: GGGAGUUCUACAGUCCGACGAUCGCUCACCCAACCAGAUAUUAACUUUAAAGUUUCCCUUUUUACUGUCCGCAUACUUCGGAUCAAUGGUUGCUUUGUAACCAUCUCACCAUUAGCUUGAAUAGCUGCAGAAAUAUUUUCACUCAACAGAGGAUUGAGCAUCA
B15: chr11:106643937:106643938:-_ENSMUSG00000020719_ENSMUST00000021062|mus_mus|FALSE|FALSE (ssRNA)
RNA: GGGAGUUCUACAGUCCGACGAUCAGGUGUAAAGAAAGUGUAUGCUGUGCCUGUUUUGGUACUGCGAGCAGUUCUUCCAAUUCGAUGAAUAUAAUCCUCUGAGGAGUUAGGGUAGUCAUAAUUGAUGACAAAUUUCACAUCUUCCAACAGAGGAUUGAGCAUCA
B16: chr14:31888013:31888014:+_ENSMUSG00000042323_ENSMUST00000112095|mus_mus|FALSE|FALSE (ssRNA)
RNA: GGGAGUUCUACAGUCCGACGAUCGCUGAGUGCUGGAGAAAGAAGGAUCUCUCCAUUUUUGCAGAGUUCAUCACGAAUUCUAAUAAAAAACUGCUGAAGUUCUACAGCAUCCUCAUAUAUUUCGGAAUCUGUCCGGUUCAUCCUCAACAGAGGAUUGAGCAUCA
B17: chr11:87793471:87793472:-_ENSMUSG00000020483_ENSMUST00000020775|mus_mus|mus_mus_mus_hu_False|18_38 (ssRNA)
RNA: GGGAGUUCUACAGUCCGACGAUCUGGACUUGAAAAUAAAAGAAUAAGCUGGAUCCCCCACCCCCCCACAUUGUCAACCCUACACGAGAGUUUUGAAUGAUUCAUAAGAAAAUCAGCCUCAAUUGGCGCAAUGACCACCCCACCCAACAGAGGAUUGAGCAUCA
B18: chr1:94914635:94914636:-_ENSMUSG00000014602_ENSMUST00000171796|mus_hu|FALSE|FALSE (ssRNA)
RNA: GGGAGUUCUACAGUCCGACGAUCAACAGGGUGGAGGUGGUUGGGGGUUCCAUCUGAAUAUUACAGGGCUAUGUGGAGGCAUUAGAAAUAAAUACUUAUAAAUAGAACAAGUCUUAUAGUUAAUUUCCGAGUUGACUGUUUCAACAACAGAGGAUUGAGCAUCA
B19: chr9:95013113:95013114:-_ENSG00000196305_ENST00000443024|hu_hu|hu_hu_hu_mus_False|28_48 (ssRNA)
RNA: GGGAGUUCUACAGUCCGACGAUCCUCAGUCAGAAAGGGCGUGUAAGGGGCCAUCAGUCUGCACAGAGAAAGCAGGACACUGAACAGGGUUUCUAGGGCCAUGACACAAUCCUCCAUCCCACUCUCACCCUUUAACCUCCUCCUCAACAGAGGAUUGAGCAUCA
B20: chr10:33214929:33214930:-_ENSG00000150093_ENST00000302278|hu_hu|hu_hu_hu_mus_True|18_28 (ssRNA)
RNA: GGGAGUUCUACAGUCCGACGAUCAACAAGUUCAUUGAAAAACUCUCCUCUGUCAGUAAGACUAAGCACAUUUUUGUAGCUAAAUGGGCUGGUGCAGUUUUGUUCACUUGUGCAAGGGUUCCUGAGCUUUGCUGGGGUUGUGCUCAACAGAGGAUUGAGCAUCA
B21: chr10:112361861:112361862:+_ENSG00000108055_ENST00000361804|hu_mus|FALSE|FALSE (ssRNA)
RNA: GGGAGUUCUACAGUCCGACGAUCAAUAGCUUCAUAUUUUCUAAGUUCAAGUACAUUCAUCAAUUCCAUGAUUGAUUUGUAGCCUCUAUCCAAUUCCUCUUGCCGCUUUAUCAGCUUUUCCUUCUGCUCAGAGAAAUUCACAAACAACAGAGGAUUGAGCAUCA
B22: chr19:34925787:34925788:+_ENSG00000126261_ENST00000246548|perfect_dup|FALSE|FALSE (ssRNA)
RNA: GGGAGUUCUACAGUCCGACGAUCAAGAUACCCAGCUGUUCCACUUUCAAUAAGAGGAACAUCAGCUGCCAGGCACAUUCUAUUAACAUGGUUUCGGGCAGCUCUGUUAUCUAAAGCAUUCAUAACCAGUAUAAACUGUCGGAACAACAGAGGAUUGAGCAUCA

Some of the results follow.

The target in the assay is T1, UNK ZnF1-3. Kind of assay: nsRBNS (natural sequence RNA bind-n-seq); RBNS binding buffer (assumed for nsRBNS): 25 mM Tris pH 7.5, 150 mM KCl, 3 mM MgCl2, 0.01% Triton X-100, 500 ug/ml BSA, 20 U/ml SUPERase-In, 4 C; UNK is unkempt and MSI1 is Musashi-1; names of the RNAs are library labels; protein concentration not given here; high values mean tight binding.
B1 had a binding signal of 0.894 enrichment R.

With B2, the binding signal was determined as 1.26 enrichment R.

Molecule B3 showed a binding signal of 1.65 enrichment R.

On to B4, for which the binding signal amounted to 0.842 enrichment R.

Consider B5, for which the binding signal was found to be 0.872 enrichment R.

On to B6, for which the binding signal was determined as 0.613 enrichment R.

In turn, B7 registered a binding signal of 0.721 enrichment R.

Regarding B8, the binding signal came out at 1.28 enrichment R.

The molecule B9 came in with a binding signal of 0.824 enrichment R.

On to B10, for which the binding signal turned out to be 0.687 enrichment R.

B11 came in with a binding signal of 1.37 enrichment R.

B12 showed a binding signal of 0.7 enrichment R.

The molecule B13 came in with a binding signal of 1.09 enrichment R.

Molecule B14 registered a binding signal of 0.651 enrichment R.

Molecule B15 showed a binding signal of 2.51 enrichment R.

Regarding B16, the binding signal came to 1.3 enrichment R.

Molecule B17 returned a binding signal of 1.92 enrichment R.

B18 had a binding signal of 1.86 enrichment R.

For the molecule B19, the binding signal came out at 1.24 enrichment R.

B20 displayed a binding signal of 1.01 enrichment R.

B21 registered a binding signal of 0.761 enrichment R.

As for B22, the binding signal worked out at 0.474 enrichment R.
